Target: CD40 (binding assays of Example 4; species and form not stated) (UniProt P25942 fragment, limits assumed)
Experiment: antigen binding, method not stated

UniProt P25942, sequence (P25942 21-193 limits assumed): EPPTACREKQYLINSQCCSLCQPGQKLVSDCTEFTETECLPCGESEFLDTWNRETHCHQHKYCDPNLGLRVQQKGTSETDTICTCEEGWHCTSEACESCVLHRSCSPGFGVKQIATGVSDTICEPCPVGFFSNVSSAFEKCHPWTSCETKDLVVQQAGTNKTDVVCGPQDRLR

| EC50 [µg/mL] | Binder |
| --- | --- |
| 0.4 | B40 (bispecific antibody, IgG1, huAb9-5 (VH-VL) N-terminal, HuAM15 (VL-VH) C-terminal, huIgG1 V273E) EVQLQESGPGLVKPSETLSLTCTVSGYSITSNYYWNWIRQPPGKGLEWMGYIRYDGSNNYNPSLKNRVTISRDTSKNQFSLKLSSVTAADTAVYYCARLDYWGQGTTVTVSSDLSGGGGSGGGGSGGGGSGGGGSTGDAVMTQTPLSLSVTPGQPASISCRSSQSLENTNGNTFLNWYLQKPGQSPQLLIYRVSNRFSGVPDRFSGSGSGTDFTLKISRVEAEDVGVYYCLQVTHVPFTFGQGTKLEIKRLE[human IgG1 Fc with C220S V273E (EU numbers) not written out]VDGASSPVNVSSPSVQDISYELTQPPSVSVSPGQTASITCSGDKLGDKYASWYQQKPGQSPVLVIYQDNRRPSGIPERFSGSNSGNTATLTISGTQAMDEADYYCQAWDSDTYVFGTGTKVTVLGQDLSGGGGSGGGGSGGGGSGGGGSTGEVQLVQSGAEVKKPGASVKVSCKASGDTFKRYYVHWVRQAPGQGLEWMGIINPSGVSTTYAQKFQGRVTMTRDTSTSTVYMELSSLRSEDTAVYYCAEVRGSGFNYFGMDVWGQGTLVTVSS |
| 0.8 | B44 (bispecific antibody, IgG1, HuAM15 (VL-VH) N-terminal, huAb8-1 (VH-VL) C-terminal, huIgG1 V273E) SYELTQPPSVSVSPGQTASITCSGDKLGDKYASWYQQKPGQSPVLVIYQDNRRPSGIPERFSGSNSGNTATLTISGTQAMDEADYYCQAWDSDTYVFGTGTKVTVLGQDLSGGGGSGGGGSGGGGSGGGGSTGEVQLVQSGAEVKKPGASVKVSCKASGDTFKRYYVHWVRQAPGQGLEWMGIINPSGVSTTYAQKFQGRVTMTRDTSTSTVYMELSSLRSEDTAVYYCAEVRGSGFNYFGMDVWGQGTLVTVSS[human IgG1 Fc with C220S V273E (EU numbers) not written out]VDGASSPVNVSSPSVQDIEVQLVQSGAEVKKPGSSVKVSCKASGYTFTDYYINWVRQAPGQGLEWIGWIFPGSGSVYCNEQFKGRATLTVDRSTSTAYMELSSLRSEDTAVYFCASSLGKFAYWGQGTLVTVSSDLSGGGGSGGGGSGGGGSGGGGSTGDIQMTQSPSSLSASVGDRVTITCKASQSVVTAVAWYQQKPGKSPKLLIYSASNRYTGVPSRFSGSGSGTDFTLTISSLQPEDFATYFCQQYSSYPYTFGGGTKVEIKR |
| 0.8 | B42 (bispecific antibody, IgG1, huAb9-5 (VL-VH) N-terminal, HuAM15 (VL-VH) C-terminal, huIgG1 V273E) DAVMTQTPLSLSVTPGQPASISCRSSQSLENTNGNTFLNWYLQKPGQSPQLLIYRVSNRFSGVPDRFSGSGSGTDFTLKISRVEAEDVGVYYCLQVTHVPFTFGQGTKLEIKRDLSGGGGSGGGGSGGGGSGGGGSTGEVQLQESGPGLVKPSETLSLTCTVSGYSITSNYYWNWIRQPPGKGLEWMGYIRYDGSNNYNPSLKNRVTISRDTSKNQFSLKLSSVTAADTAVYYCARLDYWGQGTTVTVSSR[human IgG1 Fc with C220S V273E (EU numbers) not written out]VDGASSPVNVSSPSVQDISYELTQPPSVSVSPGQTASITCSGDKLGDKYASWYQQKPGQSPVLVIYQDNRRPSGIPERFSGSNSGNTATLTISGTQAMDEADYYCQAWDSDTYVFGTGTKVTVLGQDLSGGGGSGGGGSGGGGSGGGGSTGEVQLVQSGAEVKKPGASVKVSCKASGDTFKRYYVHWVRQAPGQGLEWMGIINPSGVSTTYAQKFQGRVTMTRDTSTSTVYMELSSLRSEDTAVYYCAEVRGSGFNYFGMDVWGQGTLVTVSS |
| 0.5 | B41 (bispecific antibody, IgG1, huAb9-5 (VL-VH) N-terminal, HuAM15 (VH-VL) C-terminal, huIgG1 V273E) DAVMTQTPLSLSVTPGQPASISCRSSQSLENTNGNTFLNWYLQKPGQSPQLLIYRVSNRFSGVPDRFSGSGSGTDFTLKISRVEAEDVGVYYCLQVTHVPFTFGQGTKLEIKRDLSGGGGSGGGGSGGGGSGGGGSTGEVQLQESGPGLVKPSETLSLTCTVSGYSITSNYYWNWIRQPPGKGLEWMGYIRYDGSNNYNPSLKNRVTISRDTSKNQFSLKLSSVTAADTAVYYCARLDYWGQGTTVTVSSR[human IgG1 Fc with C220S V273E (EU numbers) not written out]VDGASSPVNVSSPSVQDIEVQLVQSGAEVKKPGASVKVSCKASGDTFKRYYVHWVRQAPGQGLEWMGIINPSGVSTTYAQKFQGRVTMTRDTSTSTVYMELSSLRSEDTAVYYCAEVRGSGFNYFGMDVWGQGTLVTVSSDLSGGGGSGGGGSGGGGSGGGGSTGSYELTQPPSVSVSPGQTASITCSGDKLGDKYASWYQQKPGQSPVLVIYQDNRRPSGIPERFSGSNSGNTATLTISGTQAMDEADYYCQAWDSDTYVFGTGTKVTVLGQ |
